Data: ChEMBL document CHEMBL4888484, “Replenishing the malaria drug discovery pipeline: Screening and hit evaluation of the MMV Hit Generation Library 1 (HGL1) against asexual blood stage Plasmodium falciparum ,using a nano luciferase reporter read-out” (2022)
Hit rate of the full screen: of about 150,000 compounds, about 540 (0.36%) showed an effect of 50% or more. The list shows a part of the results.

system: Plasmodium falciparum; test: Primary screen in NF54 nanoGlo assay, in single point, at 2uM, 72h; a lower Z score goes with more inhibition; assay type: functional, Erythrocyte; settings: timepoint 72 hour

Structure (SMILES) | % Inhibition | Z score
CC(C)c1csc(-c2cc(N)ccn2)n1 | -5% | 0.97
NS(=O)(=O)c1ccc(CCNC(=O)Cc2csc(Nc3ccc(Cl)cn3)n2)cc1 | -14% | 2.11
CC(C)C[C@H](C)S(=O)(=O)N1CCCCC1 | -5% | 0.6
CCn1cc(C(=O)OCc2ccc(OC)nc2)cn1 | -7% | 0.95
CCN1CCn2cc(C(=O)NCc3ccc(F)cc3)nc2C1 | -2% | 0.33
Cc1nn(C)cc1CNc1ncccc1-c1ccccc1 | -16% | 1.82
Cc1csc(CNC(=O)c2cc(=O)nc3sccn23)n1 | 5% | -0.68
Cc1ccc(OCc2c(C(=O)N(C)Cc3ccsc3)c(=O)cc(C)n2CCN2CCOCC2)cc1 | -10% | 1.34
CCc1ccc(S(=O)(=O)NCc2nc3cccnc3n2Cc2ccc(C)cc2)cc1 | 7% | -1.33
COCCCNC(=O)NCCc1ncc(C)n1C1CCC1 | -6% | 0.85
CO[C@@H](C(=O)N[C@H]1C[C@H](O)C1)c1ccccc1C(F)(F)F | -3% | 0.31
O=C(CCc1cccc2ccccc12)NC1CCCC1 | -2% | 0.29
CC(C)[C@@H]1CN(C(=O)C2=NN(CCO)C(=O)CC2)c2ccccc21 | 6% | -0.67
COc1cccc(F)c1[C@H](C)NCc1ncc(C)o1 | 13% | -1.5
CNC(=O)c1ccc(Cn2cc(-c3nc(C)n4ccccc34)nn2)o1 | -6% | 1.23
Cc1nc(C2CC2)oc1C(=O)N[C@@H](C(C)C)C1(CO)CCCC1 | -5% | 0.87
COc1ccc(CCNC(=O)N2CCN(c3cccc(C)c3C)CC2)cc1OC | 1% | -0.18
Cc1ncsc1CCC(=O)N[C@H]1CC[C@@H](C(=O)Nc2ccccc2)C1 | -7% | 1.09
Cn1cc(C(=O)C(=O)N2CCc3ccccc32)c2ccccc21 | -6% | 0.83

Structure (SMILES) | % Inhibition | Z score
Cn1cc(C2CCN(C(=O)c3ccc(=O)n(C)c3)CC2)cn1 | -11% | 1.37
CCN(C(=O)[C@@H]1CC(F)(F)CN1C1CN(S(C)(=O)=O)C1)C(C)C | 1% | -0.18
CCCCc1noc(CN[C@H]2CC(C)(C)OC2(C)C)n1 | 2% | -0.32
CCCc1ccc(S(=O)(=O)N2CCN(c3cnn4c(C5CC5)nnc4c3)CC2)cc1 | -10% | 1.17
O=C(Nc1ccc(Cl)cc1O)C1CC=CC1 | 2% | -0.35
Cn1ccc([C@H](NC(=O)c2nccnc2N)c2ccc(Cl)cc2)n1 | -12% | 1.25
CC1CC(C(N)=O)c2ccccc2N1CC(=O)OC(C)(C)C (configuration not stated) | -4% | 0.6
CCN(Cc1ccc(C)o1)C(=O)NC[C@@H](C(C)C)N(C)C | -6% | 0.79
C[C@H](Oc1ccc(-c2ccccc2)cc1)C(=O)Nc1ccc(N(C)C)nc1 | -6% | 1.06
CC(C)Cc1noc(CN(C)S(=O)(=O)NCc2ccccc2)n1 | -9% | 1.08
OC[C@@H](O)CN(CCC(F)(F)F)C1C=CCCC1 (some centres not stated) | -3% | 0.31
CCOc1ccc(NC(=O)Cn2c3cccc(Cl)c3c(=O)n2C(C)(C)C)cc1 | -1% | 0.08
O=C(c1cc2cc(F)ccc2s1)N1CCC(n2ccnn2)CC1 | -23% | 2.6
COc1cccc(NS(=O)(=O)c2ccc3onc(C(=O)N4CCCCC4)c3c2)c1 | -1% | 0.16
CN(C)[C@H]1CCCN(Cc2cccc(-c3ccco3)c2)C1 | -4% | 0.81
Cc1ccc(CNC(=O)c2cccc(S(=O)(=O)N[C@H]3CCOC3)c2)o1 | -3% | 0.6
CCn1cnc2ccc(-c3noc(Cc4cccc(OC)c4)n3)cc21 | -16% | 1.66
CCc1ccc(-c2nccn2Cc2nnnn2-c2ccccc2)nc1 | 2% | -0.37
CN(CC1(CO)CCCC1)c1nnc(C2CCC2)o1 | 8% | -1.45

Structure (SMILES) | % Inhibition | Z score
COCCOCC(=O)N1CCC2(CC1)C[C@@H](c1ccccc1)C(=O)N(C)C2 | -9% | 1.2
COc1cc(=O)n(-c2ccccc2)cc1C(=O)N1CC(Oc2cc(C)n(C)c(=O)c2)C1 | -15% | 1.74
O=C(CN1CCc2cccc(F)c21)NC[C@H]1CCCO1 | -11% | 0.97
Cc1cc(C(=O)Nc2c(C)n(C)n(-c3ccccc3)c2=O)c(C)s1 | -1% | 0.15
O=C(Nc1ccc2ccccc2c1)c1ccc(-n2cccn2)nc1 | 4% | -0.48
Cc1cscc1-c1cc(N)nc(N2CCOCC2)n1 | -4% | 0.62
O=C(Nc1ncccn1)[C@H]1C[C@@H]1C1CC1 | -11% | 2.05
CS(=O)(=O)CCC(=O)N1CCCCC[C@H]1c1ccccc1C(F)(F)F | -2% | 0.28
COc1ccccc1CNCc1ncc(Br)s1 | -6% | 0.6
CCCN(CC(=O)O)S(=O)(=O)c1ccc(Cl)cc1Cl | -14% | 1.72
O=C(NC[C@H]1COc2ccccc2O1)c1ccc(NC(=O)c2ccc(Cl)cc2Cl)cc1 | -10% | 1.32
CCCNS(=O)(=O)c1cc2n(c1)CCCNC2=O | -16% | 1.86
CN(C[C@H](O)COCCN1CCOCC1)S(=O)(=O)O | -5% | 0.83
O=C(c1cccc(CNS(=O)(=O)c2cccs2)c1)N1CCCC1 | -34% | 4.02
O=C(C1CCS(=O)(=O)CC1)N1C[C@@H]2CC[C@H]1CN(Cc1ccccn1)C2 | -2% | 0.29
C[C@@H](CC(=O)N1CCN(c2ccccc2)CC1)n1ccnc1 | -3% | 0.45
CCn1ccc(C(=O)NCc2nccn2C(C)C)cc1=O | -9% | 1.81
COCCN1C(=O)c2ccccc2C(C(=O)N2CCCC(C(N)=O)C2)C1c1ccccc1 (configuration not stated) | 5% | -0.58
